Among the data in a collection of fitness landscapes (doi:10.1126/science.1257360) are enrichment ratio values, retold here.

The other results are listed elsewhere or left out.

B1: PhoQ; a variant is named by its letters at X, in order, P23837 (parent)
chain: MKKLLRLFFPLSLRVRFLLATAAVVLVLSLAYGMVALIGYSVSFDKTTFRLLRGESNLFYTLAKWENNKLHVELPENIDKQSPTMTLIYDENGQLLWAQRDVPWLMKMIQPDWLKSNGFHEIEADVNDTSLLLSGDHSIQQQLQEVREDDDDAEMTHSVAVNVYPATSRMPKLTIVVVDTIPVELKSSYMVWSWFIYVLSANLLLVIPLLWVAAWWSLRPIEALAKEVRELEEHNRELLNPATTRELTSLVRNLNRLLKSERERYDKYRTTLTDLTHSLKTPLXXLQXXLRSLRSEKMSVSDAEPVMLEQISRISQQIGYYLHRASMRGGTLLSRELHPVAPLLDNLTSALNKVYQRKGVNISLDISPEISFVGEQNDFVEVMGNVLDNACKYCLEFVEISARQTDEHLYIVVEDDGPGIPLSKREVIFDRGQRVDTLRPGQGVGLAVAREITEQYEGKIVAGESMLGGARMEVIFGRQHSAPKDE

The variants in this assay derive from B1. As to the kind of experiment: enrichment ratio after two sorts for PhoP signalling (ratio (wild type AVST 3.29)); higher = more functional. The settings on record: with PhoP (E. coli).
Turning to SVSL, the enrichment ratio turned out to be 7.94. FFDM: the enrichment ratio is at most 0.25. The value for DCYM was at most 0.25. The value for HHHW was at most 0.25.

Turning to VVCM, the enrichment ratio was at most 0.25. In the case of LNMF, the enrichment ratio turned out to be 0.285. Regarding LELC, the enrichment ratio was found to be 2.34. The value for VKVC was at most 0.25; that for GIRD was at most 0.25; that for KHHW was at most 0.25. Then QTHH, with at most 0.25; and DGVH, with at most 0.25; and YYPT, with at most 0.25. The value for MTGT was at most 0.25; that for LEIH was at most 0.25. Turning to TAEL, the enrichment ratio is 7.72. Take MEMS: the enrichment ratio is 63.4. Then PKIN, with at most 0.25; and RAYS, with at most 0.25. Then FSEE, with at most 0.25; and EPLI, with at most 0.25; and LVNC, with at most 0.25. As for PNLW, the enrichment ratio was at most 0.25. Then HRRP, with at most 0.25; and PCQR, with at most 0.25. On to TFNF, for which the enrichment ratio was at most 0.25.

For WYGR, the enrichment ratio was at most 0.25.

On to IHHK, for which the enrichment ratio was at most 0.25. The value for YLHG was at most 0.25; that for TSHG was 6.17.

Turning to AFLS, the enrichment ratio was 2.64. The value for ETRG was at most 0.25. As to ESGF, the enrichment ratio was at most 0.25. For the variant MGTE, the enrichment ratio was at most 0.25. The value for EGSL was at most 0.25; that for WSMK was at most 0.25. Then DIGK, with at most 0.25. The value for HKHA was at most 0.25; that for LVDE was at most 0.25. For DDVN, the enrichment ratio was at most 0.25. Then IAKI, with at most 0.25; and GALF, with 8.62; and QWIL, with at most 0.25.

RCDL: the enrichment ratio was at most 0.25. As to VQWV, the enrichment ratio was at most 0.25.

With GTDY, the enrichment ratio is at most 0.25. For NDYG, the enrichment ratio was at most 0.25.

Turning to VGGQ, the enrichment ratio is at most 0.25. The value for WIKY was at most 0.25; that for EVHD was at most 0.25. The value for ESDM was at most 0.25. For IRPK, the enrichment ratio was at most 0.25.

For KLLQ, the enrichment ratio was at most 0.25. The value for KEDR was at most 0.25; that for VYPG was at most 0.25. The value for LDLH was at most 0.25; that for HMTY was at most 0.25; that for PKMR was at most 0.25. The value for FMCY was at most 0.25; that for EMTG was at most 0.25; that for IRKH was at most 0.25. Consider TAGR, for which the enrichment ratio is at most 0.25. On to LFWM, for which the enrichment ratio is at most 0.25. The value for KFCM was at most 0.25; that for SVNN was at most 0.25. Then RDEG, with at most 0.25; and EDKF, with at most 0.25; and VWFN, with at most 0.25. FCLS: the enrichment ratio was 3.55. Then WKFG, with at most 0.25. Then FDIK, with at most 0.25; and YQFR, with at most 0.25. The value for QFIH was at most 0.25; that for EPTP was at most 0.25; that for MDCS was at most 0.25. Consider IMPD, for which the enrichment ratio was at most 0.25. With ACSS, the enrichment ratio turned out to be 10.5. Consider DVCC, for which the enrichment ratio was at most 0.25. The value for FTYF was at most 0.25. Then DPIR, with at most 0.25; and YQDY, with at most 0.25. The value for GQID was at most 0.25; that for QVNI was at most 0.25. Consider MFMN, for which the enrichment ratio is at most 0.25. The value for LCHT was at most 0.25; that for ATAP was at most 0.25. Then PEIC, with at most 0.25; and HHGA, with at most 0.25; and LWPM, with at most 0.25. Then ITFN, with at most 0.25; and VDMG, with at most 0.25. In the case of ISPL, the enrichment ratio is at most 0.25. Then HCRV, with at most 0.25. For the variant VAIP, the enrichment ratio is at most 0.25. The value for FNGQ was at most 0.25; that for DDAC was at most 0.25; that for VPYC was at most 0.25. The value for RNIC was at most 0.25. The value for AKDK was at most 0.25; that for WKIW was at most 0.25. With GEGL, the enrichment ratio was at most 0.25. Regarding TRTI, the enrichment ratio was 8.37.

Regarding ELWM, the enrichment ratio is at most 0.25.

In the case of EQLV, the enrichment ratio is at most 0.25. Then LLLA, with at most 0.25.

In the case of VAKH, the enrichment ratio is at most 0.25. On to CPPF, for which the enrichment ratio is at most 0.25.

VQER: the enrichment ratio was at most 0.25.

Consider QTAL, for which the enrichment ratio worked out at 5.88. The value for MAQM was at most 0.25; that for DAPD was at most 0.25. Regarding LHEV, the enrichment ratio was at most 0.25. Then YGFI, with at most 0.25. The value for LYDV was at most 0.25; that for IDTE was 3.21; that for VKIV was at most 0.25. The value for RNVD was at most 0.25; that for EFPR was at most 0.25; that for MTMW was at most 0.25. Turning to SMDH, the enrichment ratio is at most 0.25.

Turning to ETQP, the enrichment ratio was at most 0.25. Regarding MAWT, the enrichment ratio was at most 0.25. With WGMQ, the enrichment ratio is at most 0.25. Then IKFM, with at most 0.25. Consider PAYM, for which the enrichment ratio was at most 0.25. In the case of FPYG, the enrichment ratio was at most 0.25. Take GLEW: the enrichment ratio was at most 0.25. As to PCPT, the enrichment ratio was at most 0.25. Then APMV, with at most 0.25. Then QKHS, with at most 0.25.

As for DEEL, the enrichment ratio is at most 0.25. Regarding YEFC, the enrichment ratio was at most 0.25. In the case of RWCV, the enrichment ratio is at most 0.25. Take WHVG: the enrichment ratio is at most 0.25. Then DRTP, with at most 0.25; and QFNF, with at most 0.25.

QHCQ: the enrichment ratio was at most 0.25.

In the case of HLWI, the enrichment ratio was at most 0.25.

As to EKNF, the enrichment ratio was at most 0.25. In the case of AEPT, the enrichment ratio is at most 0.25. Then NIVA, with at most 0.25; and FYAT, with at most 0.25. Then YKMI, with at most 0.25; and RGGP, with at most 0.25.

For WQCG, the enrichment ratio was at most 0.25.

As for GTKT, the enrichment ratio is at most 0.25.

On to NNRQ, for which the enrichment ratio was at most 0.25. The value for GTVP was at most 0.25; that for YGIT was at most 0.25; that for QQFW was at most 0.25. The value for AHVY was 1.23. Then PDNN, with at most 0.25. Turning to PSTR, the enrichment ratio was at most 0.25. The value for ILWR was at most 0.25; that for SKLD was 1.26; that for PRTN was at most 0.25.

NWMV: the enrichment ratio was at most 0.25. In the case of TSDW, the enrichment ratio was at most 0.25. The value for HWCS was at most 0.25; that for ENRL was at most 0.25; that for YWTF was at most 0.25. Then EKSE, with at most 0.25; and REHI, with at most 0.25.

In the case of MDCL, the enrichment ratio is at most 0.25. Then HFPN, with at most 0.25.

VAFY: the enrichment ratio is 0.291. The value for PFHG was at most 0.25. Then MGSY, with at most 0.25; and ICYD, with at most 0.25; and PTMP, with at most 0.25.

Consider MCGQ, for which the enrichment ratio stood at 7.36. The value for MLMP was at most 0.25; that for KIGE was at most 0.25; that for FMGL was at most 0.25. The value for GKNN was at most 0.25.

With LAMI, the enrichment ratio worked out at 5.23.

On to MSRW, for which the enrichment ratio was at most 0.25.

Take FKYM: the enrichment ratio was at most 0.25. For VGFG, the enrichment ratio was at most 0.25. Then QTHF, with 3.14.

Turning to SLNT, the enrichment ratio was at most 0.25. Then NVML, with at most 0.25.

FQTN: the enrichment ratio was at most 0.25.

Turning to PNYY, the enrichment ratio is at most 0.25. The value for QNYF was at most 0.25; that for SMRL was at most 0.25; that for RKQM was at most 0.25. The value for WNRS was at most 0.25; that for KHRV was at most 0.25; that for KDWT was at most 0.25. The value for NIWA was at most 0.25; that for VTCA was at most 0.25. In the case of APGN, the enrichment ratio is at most 0.25. The value for HMWP was at most 0.25; that for TGHQ was at most 0.25.
